# Experimental data published in PubChem BioAssay AID624417 (National Center for Advancing Translational Sciences (NCATS), 2012).
# About 6,400 (1.6%) of roughly 410,000 compounds were called active. The inconclusive results got no clear call from the source; some entries with a clear call stand among them for comparison. The call rests on the fitted dose curve; in most records, active means well fitted inhibition curve with a large enough effect; inconclusive means small, poorly fitted or top-dose-only effect; inactive means no such curve, though single readings can be large or run the other way. Potencies of inconclusive entries are left out as doubtful fits.
# Target: Glucagon-like peptide 1 receptor (Homo sapiens) (UniProt P43220)
# Sequence of UniProt P43220 (P43220 whole entry, looked up): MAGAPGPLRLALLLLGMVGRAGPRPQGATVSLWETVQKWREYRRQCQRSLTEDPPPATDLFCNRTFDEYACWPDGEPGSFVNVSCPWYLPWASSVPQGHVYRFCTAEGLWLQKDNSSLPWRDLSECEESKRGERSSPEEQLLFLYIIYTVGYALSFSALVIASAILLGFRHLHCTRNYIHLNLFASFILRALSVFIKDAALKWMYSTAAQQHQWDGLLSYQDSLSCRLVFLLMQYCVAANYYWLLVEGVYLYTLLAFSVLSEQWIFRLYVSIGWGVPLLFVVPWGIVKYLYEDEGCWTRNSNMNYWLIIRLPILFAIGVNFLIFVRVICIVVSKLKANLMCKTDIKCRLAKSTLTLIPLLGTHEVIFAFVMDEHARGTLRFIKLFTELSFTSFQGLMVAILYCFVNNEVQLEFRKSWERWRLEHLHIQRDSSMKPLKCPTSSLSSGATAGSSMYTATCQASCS
# Assay: qHTS of GLP-1 Receptor Inverse Agonists (Inhibition Mode); further: nearly all actives have a fitted effect of over 55% in size
# Conditions: HEK293 GLP-1R CRE-luciferase, luminescence, 24 h, GLP-1R form is constitutively active; activity change, negative = inhibition: at 38.3 µM (top of the series) unless noted
# Summary of the method: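 qHTS in 1536-well format: reporter HEK293 cells expressing constitutive GLP-1R activity in DMEM + 10% Nu serum, 24 hr with compounds at 37 deg C, luminescence read after 12 min with detection reagent.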
# On the % scale 0 is the no-effect control and ±100 the full control effect; potency means the concentration at half of the fitted maximal effect; tags describe the fitted curve by direction and shape.
Compound,Potency,"activity change, negative = inhibition"
CCc1ccc(-c2nc(CS(=O)CC(=O)NCCCN3CCC(C)CC3)c(C)o2)cc1 (centres undefined),"inconclusive [inhibitor, partial curve, poor fit]",–
CC1=C(C(=O)N2CCOCC2)CC(CC(=O)NCCN2CCOCC2)C(=O)N1CCC1=CCCCC1 (centres undefined),–,inactive: 3.72%
CSc1ccc(CN2CCN(Cc3ccccc3)C(CCO)C2)cc1 (centres undefined),"inconclusive [inhibitor, partial curve, poor fit]",–
CC(C)OC(=O)c1c(NC(=O)COc2cccc(Br)c2)sc2c1CCCC2,–,inactive: 9.49%
COc1cc(/C=N/NC(=S)NCCc2ccccc2)cc(OC)c1OC,"inconclusive [inhibitor, single point]",–
Cc1cc(C)nc(SCC(=O)Nc2ccnc3ccccc23)n1,–,inactive: -15%
CCOC(=O)N1CCN(c2c(NCc3ccc(F)cc3)c(=O)c2=O)CC1,"inconclusive [inhibitor, partial curve, poor fit]",–
O=C(NC(=S)NCc1ccccc1)c1ccccc1F,"inconclusive [inhibitor, single point]",–
COC1=CC(=O)OC(c2ccc(C(F)(F)F)cc2)C1 (centres undefined),–,inactive: -4.57%
CC(C)[C@H](NC(=O)[C@@H]1CSC2c3ccccc3C(=O)N21)C(=O)NC1CCCCC1 (some centres undefined),"inconclusive [inhibitor, full curve, poor fit]",–
COc1ccccc1OCC(=O)N(Cc1nc(-c2ccccc2)no1)C(C)C,"inconclusive [inhibitor, full curve, poor fit]",–
CCCNC(=O)CNC(=S)N(Cc1ccccc1F)C1CCCCC1,"inconclusive [inhibitor, partial curve, poor fit]",–
CC(C)Cc1ccc(C(C)C(=O)Nc2cccnc2)cc1 (centres undefined),active: 7.94 µM,–
CCc1cccc(NC(=O)CN(c2ccc(C)cc2)S(=O)(=O)c2cccs2)c1,"inconclusive [inhibitor, single point]",–
O=C(Nc1ccc(F)cc1)Nc1ccc2snnc2c1,"inconclusive [inhibitor, single point]",–
O=C(NCc1ccc(F)cc1)c1cnn2ccccc12,"inconclusive [inhibitor, single point]",–
O=C(NCc1cccnc1)/C(=C\c1ccc(-c2ccc(Br)cc2)o1)S(=O)(=O)c1ccccc1,active: 1.78 µM,–
O=C1NC(=O)C(=Cc2ccc(Cl)cc2Cl)S1,"inconclusive [inhibitor, partial curve, poor fit]",–
CC(CCc1ccccc1)NC(=O)CCNS(=O)(=O)c1ccccc1C(F)(F)F (centres undefined),"inconclusive [inhibitor, single point]",–
